{"source": "the supplement of paper PMC4166925", "note": "± gives the standard deviation of the averaged measurements. The full ranking holds about 33,000 sequences; the median of “E-score (dimensionless, -0.5 to 0.5)” is about -0.049, and the highest 2% start at about 0.37. Some of the results follow."}
{"test_system": "T1, PmTbr T-box DNA-binding domain (GST fusion)", "T1 sequence": "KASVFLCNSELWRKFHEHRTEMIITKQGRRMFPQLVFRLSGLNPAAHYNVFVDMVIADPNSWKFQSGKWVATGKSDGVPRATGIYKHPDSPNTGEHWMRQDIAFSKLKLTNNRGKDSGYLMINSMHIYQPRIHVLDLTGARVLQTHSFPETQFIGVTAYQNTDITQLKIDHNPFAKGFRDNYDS", "experiment": "PBM E-score of 8-mer (E-score (dimensionless, -0.5 to 0.5)); Tbr is Tbrain of the sea star Patiria miniata (Pm) or the sea urchin Strongylocentrotus purpuratus (Sp); higher = stronger binding preference; most listed sequences are background and not binding sites", "conditions": "the construct has about 5 more residues each side", "in_short": "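Using the Universal PBM Analysis Suite, every ungapped 8-mer received an enrichment E-score averaged over duplicate arrays. Probe intensities came from double-stranded Universal Agilent oligonucleotide arrays incubated with 200 nM GST-fused Tbr T-box DNA-binding domain in PBS (pH 7.5). That protein was expressed in BL21 E. coli at 20 °C and purified by glutathione affinity chromatography.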"}
{"sequence": "ATATGCCG", "PBM E-score of 8-mer": "-0.235 ± 0.058"}
{"sequence": "CACCTCGG", "PBM E-score of 8-mer": "0.426 ± 0.015"}
{"sequence": "TACATGAA", "PBM E-score of 8-mer": "-0.1 ± 0.051"}
{"sequence": "GGAACTCC", "PBM E-score of 8-mer": "-0.22 ± 0.083"}
{"sequence": "ACTGGACT", "PBM E-score of 8-mer": "-0.131 ± 0.1"}
{"sequence": "GACATAAA", "PBM E-score of 8-mer": "0.154 ± 0.081"}
{"sequence": "GTCCTGTA", "PBM E-score of 8-mer": "-0.131 ± 0.013"}
{"sequence": "GTATCCTA", "PBM E-score of 8-mer": "-0.155 ± 0.036"}
{"sequence": "AGGACATA", "PBM E-score of 8-mer": "-0.211 ± 0.024"}
{"sequence": "CACAGACG", "PBM E-score of 8-mer": "0.109 ± 0.025"}
{"sequence": "CCGGGTGA", "PBM E-score of 8-mer": "0.0636 ± 0.031"}
{"sequence": "CTCGGCAG", "PBM E-score of 8-mer": "-0.0463 ± 0.094"}
{"sequence": "AAGTGCGT", "PBM E-score of 8-mer": "0.149 ± 0.039"}
{"sequence": "GCATAAAA", "PBM E-score of 8-mer": "-0.184 ± 0.045"}
{"sequence": "AAGCACCT", "PBM E-score of 8-mer": "0.208 ± 0.024"}
{"sequence": "ATATTGGC", "PBM E-score of 8-mer": "0.1323 ± 0.00022"}
{"sequence": "CACCTGCG", "PBM E-score of 8-mer": "0.429 ± 0.019"}
{"sequence": "CGTCCCGC", "PBM E-score of 8-mer": "0.0447 ± 0.092"}
{"sequence": "AACGTTCG", "PBM E-score of 8-mer": "0.0624 ± 0.041"}
{"sequence": "ACTCGTGA", "PBM E-score of 8-mer": "0.28 ± 0.0032"}
{"sequence": "AAGCTTTG", "PBM E-score of 8-mer": "-0.132 ± 0.024"}
{"sequence": "AAGATAGC", "PBM E-score of 8-mer": "-0.0909 ± 0.033"}
{"sequence": "ATGTGAGC", "PBM E-score of 8-mer": "0.0849 ± 0.0062"}
{"sequence": "TCAGGTCA", "PBM E-score of 8-mer": "-0.147 ± 0.017"}
{"sequence": "ACCGTCCC", "PBM E-score of 8-mer": "-0.208 ± 0.0082"}
{"sequence": "CTTCTAGA", "PBM E-score of 8-mer": "-0.0731 ± 0.034"}
{"sequence": "GAAAGAGA", "PBM E-score of 8-mer": "-0.0649 ± 0.017"}
{"sequence": "AACTTCCG", "PBM E-score of 8-mer": "-0.141 ± 0.013"}
{"sequence": "ATCCGCTG", "PBM E-score of 8-mer": "-0.106 ± 0.055"}
{"sequence": "ATGCAGTA", "PBM E-score of 8-mer": "-0.1591 ± 0.00047"}
{"sequence": "ACTTTAAT", "PBM E-score of 8-mer": "-0.0795 ± 0.12"}
{"sequence": "ACGGAGCG", "PBM E-score of 8-mer": "-0.0664 ± 0.049"}
{"sequence": "AACAGAAT", "PBM E-score of 8-mer": "-0.0053 ± 0.032"}
{"sequence": "GTATTCAA", "PBM E-score of 8-mer": "-0.311 ± 0.0036"}
{"sequence": "CTGGTATA", "PBM E-score of 8-mer": "-0.317 ± 0.054"}
{"sequence": "TATTGCGA", "PBM E-score of 8-mer": "0.126 ± 0.058"}
{"sequence": "ACCGAGTA", "PBM E-score of 8-mer": "-0.0655 ± 0.11"}
{"sequence": "TCCCGCCA", "PBM E-score of 8-mer": "0.0126 ± 0.064"}
{"sequence": "GGCTTATA", "PBM E-score of 8-mer": "-0.322 ± 0.057"}
{"sequence": "CTATTTAC", "PBM E-score of 8-mer": "-0.0656 ± 0.063"}
{"sequence": "ATTGGGCG", "PBM E-score of 8-mer": "0.004 ± 0.007"}
{"sequence": "AATCACGC", "PBM E-score of 8-mer": "0.286 ± 0.013"}
{"sequence": "GAGCTGAA", "PBM E-score of 8-mer": "-0.0595 ± 0.027"}
{"sequence": "ATATATTG", "PBM E-score of 8-mer": "-0.0768 ± 0.17"}
{"sequence": "CAATCCGC", "PBM E-score of 8-mer": "-0.00975 ± 0.0096"}
{"sequence": "CGAGAGAC", "PBM E-score of 8-mer": "-0.1636 ± 0.001"}
{"sequence": "CGTCTCAC", "PBM E-score of 8-mer": "0.3 ± 0.029"}
{"sequence": "AATGCAAG", "PBM E-score of 8-mer": "-0.255 ± 0.012"}
{"sequence": "CGTAGGTC", "PBM E-score of 8-mer": "-0.279 ± 0.027"}
{"sequence": "GCGAGTGA", "PBM E-score of 8-mer": "0.2338 ± 0.0017"}
{"sequence": "AACATCAA", "PBM E-score of 8-mer": "-0.0297 ± 0.099"}
{"sequence": "ACTAAGAT", "PBM E-score of 8-mer": "0.0982 ± 0.03"}
{"sequence": "TGGTAAAA", "PBM E-score of 8-mer": "0.00946 ± 0.093"}
{"sequence": "ACTTCTCC", "PBM E-score of 8-mer": "-0.0311 ± 0.0014"}
{"sequence": "ATAGAGGG", "PBM E-score of 8-mer": "-0.131 ± 0.045"}
{"sequence": "ATACCTAT", "PBM E-score of 8-mer": "-0.0294 ± 0.018"}
{"sequence": "CAAGCCTG", "PBM E-score of 8-mer": "-0.0239 ± 0.075"}
{"sequence": "GCGTTCAC", "PBM E-score of 8-mer": "0.131 ± 0.027"}
{"sequence": "ATGTTGCC", "PBM E-score of 8-mer": "-0.032 ± 0.029"}
{"sequence": "ACTACAGT", "PBM E-score of 8-mer": "-0.14 ± 0.065"}
{"sequence": "TCATGTAA", "PBM E-score of 8-mer": "-0.126 ± 0.019"}
{"sequence": "AGCGGCCC", "PBM E-score of 8-mer": "-0.224 ± 0.011"}
{"sequence": "AAATGCGT", "PBM E-score of 8-mer": "-0.027 ± 0.067"}
{"sequence": "ATTTGTAC", "PBM E-score of 8-mer": "-0.0401 ± 0.085"}
{"sequence": "CATAGACA", "PBM E-score of 8-mer": "-0.0439 ± 0.027"}
{"sequence": "GAGTCTGA", "PBM E-score of 8-mer": "-0.244 ± 0.015"}
{"sequence": "CATTCCTC", "PBM E-score of 8-mer": "-0.173 ± 0.013"}
{"sequence": "AAGATTAA", "PBM E-score of 8-mer": "-0.077 ± 0.069"}
{"sequence": "GAAACCTA", "PBM E-score of 8-mer": "0.0176 ± 0.07"}
{"sequence": "GACCCTTA", "PBM E-score of 8-mer": "-0.0822 ± 0.0071"}
{"sequence": "AAGCTACA", "PBM E-score of 8-mer": "-0.218 ± 0.056"}
{"sequence": "ATGCTTAA", "PBM E-score of 8-mer": "-0.261 ± 0.029"}
{"sequence": "CATCACGC", "PBM E-score of 8-mer": "0.247 ± 0.046"}
{"sequence": "ATTAGGTC", "PBM E-score of 8-mer": "-0.153 ± 0.013"}
{"sequence": "AGCACTTA", "PBM E-score of 8-mer": "0.272 ± 0.0086"}
{"sequence": "GTTGTTCA", "PBM E-score of 8-mer": "0.0173 ± 0.026"}
{"sequence": "TAGTACTA", "PBM E-score of 8-mer": "-0.0576 ± 0.053"}
{"sequence": "ACCGCCGG", "PBM E-score of 8-mer": "0.0198 ± 0.11"}
{"sequence": "GAATTAAA", "PBM E-score of 8-mer": "-0.137 ± 0.11"}
{"sequence": "CTACGTTA", "PBM E-score of 8-mer": "-0.232 ± 0.004"}
{"sequence": "GGTCTCAA", "PBM E-score of 8-mer": "-0.093 ± 0.037"}
{"sequence": "ATTATTAG", "PBM E-score of 8-mer": "-0.0653 ± 0.033"}
{"sequence": "CCCAACAA", "PBM E-score of 8-mer": "0.0135 ± 0.11"}
{"sequence": "AGCATGCT", "PBM E-score of 8-mer": "-0.0402 ± 0.018"}
{"sequence": "CGACACAG", "PBM E-score of 8-mer": "0.1771 ± 0.00083"}
{"sequence": "CCTAAACC", "PBM E-score of 8-mer": "-0.0267 ± 0.04"}
